Experimental findings from the supplement of paper PMC10126150 are described below.

The test system of this data set is ATP. In words: switch fluorescence ratio, 500 uM ATP over buffer (Cy3 cluster intensity, sum of 5 cycles each) (fold (ratio)); higher = stronger signal-on switching upon ATP binding; sequences stand for … in TCGTCGGCAGCGTCAGATGTGTATAAGAGACAGTTTTTTTTTTTTTTTTTTTTTTTTT…TC. The conditions noted are these: aptamer strand: ATP DNA aptamer (quencher-CACCTGGGGGAGTATTGCGGAGGAAGG + anchor), 100 nM annealed; ATP concentration: 500 uM; one replicate. The method in brief: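 The quencher-labelled ATP aptamer, at 100 nM, was annealed to Cy3-labelled switching-strand clusters on a modified Illumina MiSeq flow-cell. The clusters were imaged in selection buffer, then after 15 min with 500 uM ATP at 22 °C, and this buffer/ATP cycle ran five times with NaOH stripping and re-annealing between runs. Per-cluster fluorescence ratios, summed target-cycle over summed buffer-cycle Cy3 intensity, were averaged per switch-domain sequence. Clusters outside 100-1000 RFU were excluded.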

Sequences with one replicate were seen in a single cluster, so their values are uncertain.
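Also: ATP exposure 15 min at 22 °C before imaging.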

Turning to ACCTAGAACT, the switch fluorescence ratio came to 1.01.
With CTTTCAGGTG, the switch fluorescence ratio was 4.63.
For AGTATGCCA, the switch fluorescence ratio is 0.969.
As to GCCGGTTGAC, the switch fluorescence ratio came to 1.03.
For CTTAGTGTCG, the switch fluorescence ratio was determined as 0.986.
On to CTATAATGTG, for which the switch fluorescence ratio amounted to 0.984.
As to TTATCGAGAG, the switch fluorescence ratio was 1.
Take TTTGAATTCT: the switch fluorescence ratio is 1.01.
GGGGAAGATC: the switch fluorescence ratio was determined as 0.995.
As for GGCTCCCTTT, the figure is 1.04; as for GGCCTTTAGT, 1.02.
With ATTTGGTATA, the switch fluorescence ratio came to 1.01.
Regarding TACGTTCCTA, the switch fluorescence ratio is 1.11.
Consider TGTCCCGTCA, for which the switch fluorescence ratio turned out to be 1.01.
As for CTATGAGGGG, the figure is 0.969.
As for TATCGGGGG, the figure is 1; as for GGCCCGAAAC, 1.08.
On to GGTTTCAGAC, for which the switch fluorescence ratio came out at 1.04.
On to TCACACCGTT, for which the switch fluorescence ratio was determined as 1.02.
The value for AATCCTTTAC was 1.22; that for CACTGTCGCC was 1.02; that for GTTCGGGTAT was 0.985.
With AACAAAGGCC, the switch fluorescence ratio is 1.02.
The value for AAAATATGCA was 0.943; that for TCTTTACCTT was 1.03; that for AAAACGGGT was 1.03.
With GCTCCGACCT, the switch fluorescence ratio is 1.58.
As for TCTTAACGGA, the switch fluorescence ratio came out at 1.
As to CAATGCCTAT, the switch fluorescence ratio amounted to 1.03.
For TTGCTCGC, the switch fluorescence ratio was found to be 0.97.
As to CGGCCCGTTC, the switch fluorescence ratio was 1.08.
For the sequence CCCTGCCCGC, the switch fluorescence ratio stood at 1.78.
Consider GTGGAAGAAG, for which the switch fluorescence ratio worked out at 0.942.
Take TCAGGTCGTC: the switch fluorescence ratio is 1.03.
The value for ATAGGTGTG was 0.983.
As for GCGGTTGGTG, the figure is 1; as for TGTTAGCGAA, 1.01.
GGTAGCCTGT: the switch fluorescence ratio is 1.04.
With TTTGGACCTG, the switch fluorescence ratio is 1.
On to GCCGACAACC, for which the switch fluorescence ratio was 1.15.
For the sequence TACGGGCCAT, the switch fluorescence ratio stood at 1.01.
In the case of TTAAATACGC, the switch fluorescence ratio worked out at 1.01.
Consider TATGATGCTG, for which the switch fluorescence ratio was determined as 0.993.
In the case of GCGACGCCTA, the switch fluorescence ratio is 1.42.
As for AAGTTTCCCT, the switch fluorescence ratio is 0.994.
With TTTTACTCGG, the switch fluorescence ratio came out at 1.
For AGCTGTGGC, the switch fluorescence ratio is 1.03.
With CTAAGGGCGG, the switch fluorescence ratio stood at 1.
Turning to TGTTAAACAT, the switch fluorescence ratio is 1.02.
For the sequence ATGGGTTGC, the switch fluorescence ratio came to 1.01.
On to TCAATGAGGA, for which the switch fluorescence ratio came to 0.999.
In the case of TCCTTATTTC, the switch fluorescence ratio was found to be 0.988.
The value for CCTGCAGT was 1.61; that for AAGGGCGAGA was 0.981; that for TGTAAAGAGG was 0.999.
Consider TATATCATGA, for which the switch fluorescence ratio was 1.02.
Turning to CATGACCGAC, the switch fluorescence ratio was 1.34.
Consider TTCGTACTCG, for which the switch fluorescence ratio stood at 0.986.
For TCTGCCAGAT, the switch fluorescence ratio stood at 1.01.
As for GGTCCCCCAT, the figure is 1.07; as for TCAACCTTGT, 1.67; as for GGTGGAAGTC, 0.962.
The value for ATGCGGTTG was 0.978; that for TCGCTGACAC was 2.11.
Regarding GCATGATGGT, the switch fluorescence ratio worked out at 1.01.
Turning to ATCCTTGGTG, the switch fluorescence ratio came out at 1.3.
For the sequence GGTCACTAG, the switch fluorescence ratio was 0.979.
